This passage reports result_ITMP results from paper PMC13083723 (Patterns, 2026).

Each structure is given as a SMILES string. About 190 (3.5%) of roughly 5,400 compounds showed an effect of 50% or more. This is one part of the list.

This assay has as its system Vero-E6. As to the kind of experiment: primary screen, phospholipidosis by LipidTOX staining; higher = more effect of the substance. Conditions: 10 µM. Put shortly: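 Drug-induced phospholipidosis detected with HCS LipidTOX Red reagent in Vero-E6 cells. Compounds tested at 10 μM, with amiodarone (10 μM) as positive control and DMSO (0.1 v/v %) as vehicle.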
Consider `Cc1sc(C)c(C(=O)NC2(c3ccc(C(=O)O)cc3)CC2)c1Cc1ccc(C(F)(F)F)cc1`, for which the result_ITMP is 0.39%.

For the molecule `COc1cc(N2CCC(N(C)C)CC2)ccc1Nc1ncc(Cl)c(Nc2ccccc2P(C)(C)=O)n1`, the result_ITMP came out at 51.8%.

With `Cc1c(OCc2cccc(-c3ccc(C(=O)O)cc3)c2)cc2c(c1C)C(=O)C(C1CCCC1)C2` (stereo not shown), the result_ITMP is -2.12%.

As for `CCN(c1nc(N)c(C(=O)NC(=N)N)nc1Cl)C(C)C`, the result_ITMP is recorded as -1.36%.

Turning to `CC(C)OC(=O)c1cc2c(OCC(O)CNC(C)(C)C)cccc2[nH]1` (stereo not shown), the result_ITMP came to 16.4%.

Regarding `O=S(=O)(Oc1ccc(Cl)cc1)c1ccc(Cl)cc1`, the result_ITMP is given as -7.57%.

As for `c1cc(Nc2cc(C3CC3)n[nH]2)nc(Nc2ccc3nc[nH]c3c2)n1`, the result_ITMP was -1.4%.

`CC(C)[N+](C)(CCOC(=O)C1c2ccccc2Oc2ccccc21)C(C)C`: the result_ITMP is -3.69%.

On to `C[C@H](CSC(=O)c1ccccc1)C(=O)N1C[C@@H](Sc2ccccc2)C[C@H]1C(=O)[O-]`, for which the result_ITMP is -1.35%.

In the case of `CNC(=O)COC(=O)NCCC1CCN(c2cccc(C)n2)CC1`, the result_ITMP is -9.4%.

In the case of `CC1(N)CCN(c2cnc(-c3cccc(Cl)c3Cl)c(N)n2)CC1`, the result_ITMP came to 13.6%.

For `CN1CCC[C@@H]1Cc1c[nH]c2ccc(CCS(=O)(=O)c3ccccc3)cc12`, the result_ITMP was 2.55%.

Regarding `Nc1ncnc2[nH]cnc12`, the result_ITMP is on record as -2.75%.

As to `CCC(=O)OCC(=O)C1(OC(=O)CC)C(C)CC2C3CCC4=CC(=O)C=CC4(C)C3(Cl)C(O)CC21C` (stereo not shown), the result_ITMP was -1.07%.

Take `C[n+]1c2cc(N)ccc2cc2ccc(N)cc21`: the result_ITMP was 25%.

As to `CC(=O)[C@H]1CC[C@H]2[C@@H]3CCC4C[C@](C)(O)CC[C@]4(C)[C@H]3CC[C@]12C` (stereo partly shown), the result_ITMP is reported as -9.8%.

With `O=C(O)CCNC(=O)c1ccccc1`, the result_ITMP is -2.15%.

As to `O=C(Nc1ccccc1F)N[C@H]1N=C(c2ccccc2)c2ccccc2NC1=O`, the result_ITMP is on record as -0.83%.

For `CO[C@H]1/C=C\C=C(/C)C(=O)NC2=CC(=O)C(NCCN(C)C)=C(C[C@@H](C)C[C@H](OC)[C@H](O)[C@@H](C)/C=C(\C)[C@@H]1OC(N)=O)C2=O`, the result_ITMP is recorded as -4.72%.

For the molecule `C=C1/C(=C\C=C2/CCC[C@]3(C)[C@@H]([C@H](C)CCCC(C)C)CC[C@@H]23)C[C@@H](O)C[C@@H]1O`, the result_ITMP is given as -4.89%.

Consider `CCN(CC)CCOC(=O)c1cc(Cl)c(N)cc1OC`, for which the result_ITMP is given as -0.97%.

Take `CN1CCN(c2cc(-c3ccccc3)nc(N)n2)CC1`: the result_ITMP stood at 5.46%.

For `Cc1ccc2c(c1)c1c3n2CCNC3CCC1` (stereo not shown), the result_ITMP worked out at 51.5%.

Consider `CCN(CC)CCNC(=O)c1cc(Cl)c(N)cc1OC`, for which the result_ITMP is listed as -0.15%.

Take `COc1ccc(CNC(=O)/C=C/c2ccc3[nH]cc(CCN(C)C)c3c2)cc1`: the result_ITMP was found to be 2.83%.
